Reference: PMC4746130
Results are given in words; binding and its absence hold for the method and conditions named. Binding seen in cells or lysates may run through a third protein. Some binding calls cover weakened binding; strength is not graded here. For some assays here: Tags and fused reporters may be left off the sequences shown.

Chains of the proteins cited; added tags and fusions are not shown.
UniProt Q96LA8: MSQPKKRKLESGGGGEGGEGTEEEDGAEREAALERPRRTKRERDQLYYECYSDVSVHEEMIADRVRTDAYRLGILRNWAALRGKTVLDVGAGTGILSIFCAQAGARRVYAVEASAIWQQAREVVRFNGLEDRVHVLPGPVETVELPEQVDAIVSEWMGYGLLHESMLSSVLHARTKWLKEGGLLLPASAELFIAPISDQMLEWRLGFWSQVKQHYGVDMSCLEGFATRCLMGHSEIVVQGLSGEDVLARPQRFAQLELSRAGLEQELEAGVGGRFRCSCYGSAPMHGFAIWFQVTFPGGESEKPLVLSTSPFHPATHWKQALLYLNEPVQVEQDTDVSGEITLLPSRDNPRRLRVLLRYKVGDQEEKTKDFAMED
UniProt Q99873: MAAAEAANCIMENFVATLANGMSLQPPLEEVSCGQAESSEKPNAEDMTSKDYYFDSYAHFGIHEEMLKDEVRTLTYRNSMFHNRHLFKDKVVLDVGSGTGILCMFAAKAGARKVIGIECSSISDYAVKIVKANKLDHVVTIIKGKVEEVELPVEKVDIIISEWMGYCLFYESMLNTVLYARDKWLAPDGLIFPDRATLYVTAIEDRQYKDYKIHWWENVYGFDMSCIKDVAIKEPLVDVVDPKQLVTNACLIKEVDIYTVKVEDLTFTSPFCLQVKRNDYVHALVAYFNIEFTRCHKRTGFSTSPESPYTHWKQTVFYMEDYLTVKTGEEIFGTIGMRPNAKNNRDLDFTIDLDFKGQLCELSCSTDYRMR
UniProt P35226: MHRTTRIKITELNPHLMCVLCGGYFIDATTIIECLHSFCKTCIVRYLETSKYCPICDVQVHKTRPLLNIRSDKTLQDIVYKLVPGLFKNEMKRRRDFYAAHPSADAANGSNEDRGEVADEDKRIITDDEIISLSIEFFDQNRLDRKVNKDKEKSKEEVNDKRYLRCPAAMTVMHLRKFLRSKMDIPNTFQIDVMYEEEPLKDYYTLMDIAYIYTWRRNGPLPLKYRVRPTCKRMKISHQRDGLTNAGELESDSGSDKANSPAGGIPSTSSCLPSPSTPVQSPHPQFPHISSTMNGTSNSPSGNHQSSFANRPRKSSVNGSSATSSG

Columns and labels:
[1] = target: Protein arginine methyltransferase 6 (PRMT6), endogenous (human (endogenous in HEK293)) (UniProt Q96LA8); experiment: co-IP; as the anti-PRMT6 IPs from HEK293 extracts, with ethidium bromide added in the IPs; data not shown
[2] = target: PRMT1, endogenous (human (endogenous in HEK293)) (UniProt Q99873); experiment: co-IP; HEK293 protein extracts; immunoprecipitation with anti-PRMT1 or anti-PRMT4, beads alone and isotype-specific IgG as controls; Western blot for endogenous BMI1 and HPH2
[3] = target: T1, PRMT4, endogenous (human (endogenous in HEK293)) (UniProt Q86X55); experiment: as above
T1 sequence: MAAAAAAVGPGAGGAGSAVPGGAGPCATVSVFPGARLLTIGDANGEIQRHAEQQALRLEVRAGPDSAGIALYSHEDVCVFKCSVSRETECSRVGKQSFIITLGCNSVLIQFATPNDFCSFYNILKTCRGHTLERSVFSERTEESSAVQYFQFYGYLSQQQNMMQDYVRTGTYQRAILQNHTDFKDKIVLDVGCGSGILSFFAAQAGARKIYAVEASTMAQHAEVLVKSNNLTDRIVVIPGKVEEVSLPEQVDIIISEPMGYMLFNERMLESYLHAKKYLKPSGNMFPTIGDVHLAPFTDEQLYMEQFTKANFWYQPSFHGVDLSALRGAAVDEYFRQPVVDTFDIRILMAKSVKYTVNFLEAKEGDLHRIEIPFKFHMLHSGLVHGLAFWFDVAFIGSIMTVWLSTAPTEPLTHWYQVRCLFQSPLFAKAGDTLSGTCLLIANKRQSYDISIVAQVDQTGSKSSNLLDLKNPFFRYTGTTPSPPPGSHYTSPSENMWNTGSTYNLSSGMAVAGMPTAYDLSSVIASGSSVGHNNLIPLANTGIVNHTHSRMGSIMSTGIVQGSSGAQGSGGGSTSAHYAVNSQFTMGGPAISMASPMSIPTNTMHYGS

[4] = target: Protein arginine methyltransferase 6 (PRMT6), endogenous (human (endogenous in HEK293)) (UniProt Q96LA8); experiment: co-IP; HEK293 protein extracts (untransfected or transfected, harvested 48 h after transfection); immunoprecipitation of endogenous PRMT6 with anti-PRMT6, isotype-specific IgG as control; Western blot of precipitates
[5] = target: Protein arginine methyltransferase 6 (PRMT6), endogenous (human (endogenous in HEK293)) (UniProt Q96LA8); experiment: co-IP; Superose 6 gel filtration fractions of extracts of transfected HEK293 cells; immunoprecipitation with anti-PRMT6 from each fraction; Western blot for the tags

Molecule: BMI1, endogenous (from UniProt P35226 1-326)
- binding [1]: binds
- binding [2]: no binding
- binding [3]: no binding
- binding [4]: binds

B1: HPH1 (Rae28), untagged, overexpressed (protein, UniProt P78364 1-1004)
chain: METESEQNSNSTNGSSSSGGSSRPQIAQMSLYERQAVQALQALQRQPNAAQYFHQFMLQQQLSNAQLHSLAAVQQATIAASRQASSPNTSTTQQQTTTTQASINLATTSAAQLISRSQSVSSPSATTLTQSVLLGNTTSPPLNQSQAQMYLRPQLGNLLQVNRTLGRNVPLASQLILMPNGAVAAVQQEVPSAQSPGVHADADQVQNLAVRNQQASAQGPQMQGSTQKAIPPGASPVSSLSQASSQALAVAQASSGATNQSLNLSQAGGGSGNSIPGSMGPGGGGQAHGGLGQLPSSGMGGGSCPRKGTGVVQPLPAAQTVTVSQGSQTEAESAAAKKAEADGSGQQNVGMNLTRTATPAPSQTLISSATYTQIQPHSLIQQQQQIHLQQKQVVIQQQIAIHHQQQFQHRQSQLLHTATHLQLAQQQQQQQQQQQQQQQPQATTLTAPQPPQVPPTQQVPPSQSQQQAQTLVVQPMLQSSPLSLPPDAAPKPPIPIQSKPPVAPIKPPQLGAAKMSAAQQPPPHIPVQVVGTRQPGTAQAQALGLAQLAAAVPTSRGMPGTVQSGQAHLASSPPSSQAPGALQECPPTLAPGMTLAPVQGTAHVVKGGATTSSPVVAQVPAAFYMQSVHLPGKPQTLAVKRKADSEEERDDVSTLGSMLPAKASPVAESPKVMDEKSSLGEKAESVANVNANTPSSELVALTPAPSVPPPTLAMVSRQMGDSKPPQAIVKPQILTHIIEGFVIQEGAEPFPVGCSQLLKESEKPLQTGLPTGLTENQSGGPLGVDSPSAELDKKANLLKCEYCGKYAPAEQFRGSKRFCSMTCAKRYNVSCSHQFRLKRKKMKEFQEANYARVRRRGPRRSSSDIARAKIQGKCHRGQEDSSRGSDNSSYDEALSPTSPGPLSVRAGHGERDLGNPNTAPPTPELHGINPVFLSSNPSRWSVEEVYEFIASLQGCQEIAEEFRSQEIDGQALLLLKEEHLMSAMNIKLGPALKICAKINVLKET
- binding [1]: binds
- binding [4]: binds

B2: Myc-tagged HPH2, overexpressed (protein, UniProt Q8IXK0 1-858)
chain: MENELPVPHTSSSACATSSTSGASSSSGCNNSSSGGSGRPTGPQISVYSGIPDRQTVQVIQQALHRQPSTAAQYLQQMYAAQQQHLMLQTAALQQQHLSSAQLQSLAAVQQASLVSNRQGSTSGSNVSAQAPAQSSSINLAASPAAAQLLNRAQSVNSAAASGIAQQAVLLGNTSSPALTASQAQMYLRAQMLIFTPTATVATVQPELGTGSPARPPTPAQVQNLTLRTQQTPAAAASGPTPTQPVLPSLALKPTPGGSQPLPTPAQSRNTAQASPAGAKPGIADSVMEPHKKGDGNSSVPGSMEGRAGLSRTVPAVAAHPLIAPAYAQLQPHQLLPQPSSKHLQPQFVIQQQPQPQQQQPPPQQSRPVLQAEPHPQLASVSPSVALQPSSEAHAMPLGPVTPALPLQCPTANLHKPGGSQQCHPPTPDTGPQNGHPEGVPHTPQRRFQHTSAVILQLQPASPPQQCVPDDWKEVAPGEKSVPETRSGPSPHQQAIVTAMPGGLPVPTSPNIQPSPAHETGQGIVHALTDLSSPGMTSGNGNSASSIAGTAPQNGENKPPQAIVKPQILTHVIEGFVIQEGAEPFPVGRSSLLVGNLKKKYAQGFLPEKLPQQDHTTTTDSEMEEPYLQESKEEGAPLKLKCELCGRVDFAYKFKRSKRFCSMACAKRYNVGCTKRVGLFHSDRSKLQKAGAATHNRRRASKASLPPLTKDTKKQPTGTVPLSVTAALQLTHSQEDSSRCSDNSSYEEPLSPISASSSTSRRRQGQRDLELPDMHMRDLVGMGHHFLPSEPTKWNVEDVYEFIRSLPGCQEIAEEFRAQEIDGQALLLLKEDHLMSAMNIKLGPALKIYARISMLKDS
- binding [1]: binds
- binding [5]: binds
- binding [4]: binds

B3: GFP-tagged CBX4, overexpressed (protein, UniProt O00257 1-560)
chain: MELPAVGEHVFAVESIEKKRIRKGRVEYLVKWRGWSPKYNTWEPEENILDPRLLIAFQNRERQEQLMGYRKRGPKPKPLVVQVPTFARRSNVLTGLQDSSTDNRAKLDLGAQGKGQGHQYELNSKKHHQYQPHSKERAGKPPPPGKSGKYYYQLNSKKHHPYQPDPKMYDLQYQGGHKEAPSPTCPDLGAKSHPPDKWAQGAGAKGYLGAVKPLAGAAGAPGKGSEKGPPNGMMPAPKEAVTGNGIGGKMKIVKNKNKNGRIVIVMSKYMENGMQAVKIKSGEVAEGEARSPSHKKRAADERHPPADRTFKKAAGAEEKKVEAPPKRREEEVSGVSDPQPQDAGSRKLSPTKEAFGEQPLQLTTKPDLLAWDPARNTHPPSHHPHPHPHHHHHHHHHHHHAVGLNLSHVRKRCLSETHGEREPCKKRLTARSISTPTCLGGSPAAERPADLPPAAALPQPEVILLDSDLDEPIDLRCVKTRSEAGEPPSSLQVKPETPASAAVAVAAAAAPTTTAEKPPAEAQDEPAESLSEFKPFFGNIIITDVTANCLTVTFKEYVTV
- binding [1]: binds
- binding [4]: binds

B4: GFP-tagged CBX8, overexpressed (protein, UniProt Q9HC52 1-389)
chain: MELSAVGERVFAAEALLKRRIRKGRMEYLVKWKGWSQKYSTWEPEENILDARLLAAFEEREREMELYGPKKRGPKPKTFLLKAQAKAKAKTYEFRSDSARGIRIPYPGRSPQDLASTSRAREGLRNMGLSPPASSTSTSSTCRAEAPRDRDRDRDRDRERDRERERERERERERERERERGTSRVDDKPSSPGDSSKKRGPKPRKELPDPSQRPLGEPSAGLGEYLKGRKLDDTPSGAGKFPAGHSVIQLARRQDSDLVQCGVTSPSSAEATGKLAVDTFPARVIKHRAAFLEAKGQGALDPNGTRVRHGSGPPSSGGGLYRDMGAQGGRPSLIARIPVARILGDPEEESWSPSLTNLEKVVVTDVTSNFLTVTIKESNTDQGFFKEKR
- binding [1]: binds
- binding [5]: binds
- binding [4]: binds

B5: HPH1, endogenous (protein, UniProt P78364 1-1004)
chain: METESEQNSNSTNGSSSSGGSSRPQIAQMSLYERQAVQALQALQRQPNAAQYFHQFMLQQQLSNAQLHSLAAVQQATIAASRQASSPNTSTTQQQTTTTQASINLATTSAAQLISRSQSVSSPSATTLTQSVLLGNTTSPPLNQSQAQMYLRPQLGNLLQVNRTLGRNVPLASQLILMPNGAVAAVQQEVPSAQSPGVHADADQVQNLAVRNQQASAQGPQMQGSTQKAIPPGASPVSSLSQASSQALAVAQASSGATNQSLNLSQAGGGSGNSIPGSMGPGGGGQAHGGLGQLPSSGMGGGSCPRKGTGVVQPLPAAQTVTVSQGSQTEAESAAAKKAEADGSGQQNVGMNLTRTATPAPSQTLISSATYTQIQPHSLIQQQQQIHLQQKQVVIQQQIAIHHQQQFQHRQSQLLHTATHLQLAQQQQQQQQQQQQQQQPQATTLTAPQPPQVPPTQQVPPSQSQQQAQTLVVQPMLQSSPLSLPPDAAPKPPIPIQSKPPVAPIKPPQLGAAKMSAAQQPPPHIPVQVVGTRQPGTAQAQALGLAQLAAAVPTSRGMPGTVQSGQAHLASSPPSSQAPGALQECPPTLAPGMTLAPVQGTAHVVKGGATTSSPVVAQVPAAFYMQSVHLPGKPQTLAVKRKADSEEERDDVSTLGSMLPAKASPVAESPKVMDEKSSLGEKAESVANVNANTPSSELVALTPAPSVPPPTLAMVSRQMGDSKPPQAIVKPQILTHIIEGFVIQEGAEPFPVGCSQLLKESEKPLQTGLPTGLTENQSGGPLGVDSPSAELDKKANLLKCEYCGKYAPAEQFRGSKRFCSMTCAKRYNVSCSHQFRLKRKKMKEFQEANYARVRRRGPRRSSSDIARAKIQGKCHRGQEDSSRGSDNSSYDEALSPTSPGPLSVRAGHGERDLGNPNTAPPTPELHGINPVFLSSNPSRWSVEEVYEFIASLQGCQEIAEEFRSQEIDGQALLLLKEEHLMSAMNIKLGPALKICAKINVLKET
- binding [1]: binds
- binding [4]: binds

B6: HPH2, endogenous (protein, UniProt Q8IXK0 1-858)
chain: MENELPVPHTSSSACATSSTSGASSSSGCNNSSSGGSGRPTGPQISVYSGIPDRQTVQVIQQALHRQPSTAAQYLQQMYAAQQQHLMLQTAALQQQHLSSAQLQSLAAVQQASLVSNRQGSTSGSNVSAQAPAQSSSINLAASPAAAQLLNRAQSVNSAAASGIAQQAVLLGNTSSPALTASQAQMYLRAQMLIFTPTATVATVQPELGTGSPARPPTPAQVQNLTLRTQQTPAAAASGPTPTQPVLPSLALKPTPGGSQPLPTPAQSRNTAQASPAGAKPGIADSVMEPHKKGDGNSSVPGSMEGRAGLSRTVPAVAAHPLIAPAYAQLQPHQLLPQPSSKHLQPQFVIQQQPQPQQQQPPPQQSRPVLQAEPHPQLASVSPSVALQPSSEAHAMPLGPVTPALPLQCPTANLHKPGGSQQCHPPTPDTGPQNGHPEGVPHTPQRRFQHTSAVILQLQPASPPQQCVPDDWKEVAPGEKSVPETRSGPSPHQQAIVTAMPGGLPVPTSPNIQPSPAHETGQGIVHALTDLSSPGMTSGNGNSASSIAGTAPQNGENKPPQAIVKPQILTHVIEGFVIQEGAEPFPVGRSSLLVGNLKKKYAQGFLPEKLPQQDHTTTTDSEMEEPYLQESKEEGAPLKLKCELCGRVDFAYKFKRSKRFCSMACAKRYNVGCTKRVGLFHSDRSKLQKAGAATHNRRRASKASLPPLTKDTKKQPTGTVPLSVTAALQLTHSQEDSSRCSDNSSYEEPLSPISASSSTSRRRQGQRDLELPDMHMRDLVGMGHHFLPSEPTKWNVEDVYEFIRSLPGCQEIAEEFRAQEIDGQALLLLKEDHLMSAMNIKLGPALKIYARISMLKDS
- binding [1]: binds
- binding [2]: no binding
- binding [3]: no binding
- binding [4]: binds
